Two molecules from patent publication US20180092975A1 (CELGENE, published 2018) can be followed below.

Assay [1] has as its target T1, human PD-1 expressed on cells (human, UniProt Q15116 partial chain). The assay is described as follows: cell-based or functional assay.
Assay [2] deals with T1, human PD-1 expressed on cells. The assay is described as follows: flow cytometry on CHO cells expressing human PD-1, detection with anti-human IgG Fc, PE GeoMFI.
Assay [3] deals with T2, cyno PD-1 expressed on cells (cynomolgus monkey, UniProt B0LAJ3 25-288).
T2 construct: also called Cyno PD-1 expressed on CHO cells; PD-1 on cynomolgus T cells
T2 sequence (B0LAJ3 entry or part of it limits assumed): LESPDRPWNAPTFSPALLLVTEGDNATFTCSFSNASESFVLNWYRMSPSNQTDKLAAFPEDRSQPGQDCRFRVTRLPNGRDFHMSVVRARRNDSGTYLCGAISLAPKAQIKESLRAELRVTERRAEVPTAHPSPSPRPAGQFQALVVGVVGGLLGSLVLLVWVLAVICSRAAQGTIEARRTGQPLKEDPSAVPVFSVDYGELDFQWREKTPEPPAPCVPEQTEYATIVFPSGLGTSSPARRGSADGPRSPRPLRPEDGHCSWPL
The assay is described as follows: flow cytometry on CHO cells expressing cyno PD-1, detection with anti-human IgG Fc, PE GeoMFI.

T1 sequence (Q15116 25-198 limits assumed): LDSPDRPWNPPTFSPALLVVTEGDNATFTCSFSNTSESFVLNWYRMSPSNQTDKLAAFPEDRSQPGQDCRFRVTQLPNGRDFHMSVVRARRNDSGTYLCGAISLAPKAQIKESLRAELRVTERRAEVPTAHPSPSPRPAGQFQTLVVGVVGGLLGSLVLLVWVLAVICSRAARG

B1: PD1AB-6-K3 (antibody, human IgG1, kappa)
heavy: EVQLVQSGAEVKKPGATVKISCKASGFNIKDTYMHWVQQAPGKGLEWMGRIDPANGDRKYDPKFQGRVTITADTSTDTAYMELSSLRSEDTAVYYCARSGPVYYYGSSYVMDYWGQGTTVTVSS[gap - human IgG1 constant region with changes]
light: DIVMTQSPDSLAVSLGERATINCKSGQSVLYSSNQKNFLAWYQQKPGQPPKLLIYWASTRESGVPDRFSGSGSGTDFTLTISSLQAEDVAVYYCHQYLYSWTFGQGTKLEIKRTVAAPSVFIFPPSDEQLKSGTASVVCLLNNFYPREAKVQWKVDNALQSGNSQESVTEQDSKDSTYSLSSTLTLSKADYEKHKVYACEVTHQGLSSPVTKSFNRGEC
On to B1, for which the “average EC50 for IFN-γ inhibition, normal donor whole blood (n=4)” value in assay [1] is 6.18 nM.

B2: PD1AB-6-IgG1 (antibody)
heavy: EVQLVQSGAEVKKPGATVKISCKASGFNIKDTYMHWVQQAPGKGLEWMGRIDPANGDRKYDPKFQGRVTITADTSTDTAYMELSSLRSEDTAVYYCARSGPVYYYGSSYVMDYWGQGTTVTVSS[gap - human IgG1 constant region]
light: B1 light
notes: Full IgG1 kappa antibody; also called IgG1_PD1AB-6; IgG1-PD1AB-6
As for B2, the LogEC50 in assay [2] was 0.431 log10 of nM (axis: Primary Ab conc (nM), log scale); in assay [3] it was 0.806 log10 of nM (axis: Primary Ab conc (nM), log scale).
